± gives the standard deviation of the averaged measurements. Over roughly 4,000 sequences, “arbitrary fluorescence units” has its median near 830; the highest 2% begin near 6,500. This part holds few or none of the hits.
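Note: Full-length recombinant human RUNX1 bound to double-stranded DNA microarray spots, detected with an Alexa488-labelled secondary antibody after the anti-RUNX1 primary, read as scanned spot fluorescence.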

UniProt Q01196, sequence (Q01196 whole entry): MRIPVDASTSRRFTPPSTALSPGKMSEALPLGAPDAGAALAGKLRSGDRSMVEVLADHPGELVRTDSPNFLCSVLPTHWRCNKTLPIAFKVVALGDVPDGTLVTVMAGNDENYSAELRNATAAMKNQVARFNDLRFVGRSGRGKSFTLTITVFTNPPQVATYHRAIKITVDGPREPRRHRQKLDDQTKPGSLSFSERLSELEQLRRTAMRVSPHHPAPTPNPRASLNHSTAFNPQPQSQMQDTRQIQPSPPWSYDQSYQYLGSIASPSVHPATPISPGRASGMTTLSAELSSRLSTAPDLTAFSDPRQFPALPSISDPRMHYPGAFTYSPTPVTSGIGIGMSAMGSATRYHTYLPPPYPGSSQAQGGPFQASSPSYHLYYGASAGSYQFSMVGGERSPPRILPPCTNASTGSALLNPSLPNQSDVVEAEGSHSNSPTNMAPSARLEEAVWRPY

The target in this assay is RUNX1 (UniProt Q01196). As to the kind of experiment: RUNX1 binding intensity (PBM fluorescence), RUNX1 alone (arbitrary fluorescence units); higher = stronger binding. The settings on record: RUNX1 concentration 2 nM; ETS1 concentration 0 nM. The protocol:
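gcPBM on 36-bp genomic-derived probes (partner site mutated) containing one RUNX1 site and no ETS1 site. Recombinant human RUNX1 (2 nM) was incubated alone or with ETS1 (25 nM) and detected by anti-RUNX1 antibody fluorescence. Values are medians over 4 replicate spots (not normalised). The probes sit in constant array flanks that are not printed.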
Sequence CGGGCCCGCAGATATCACACCCACCCGAAAGTCCTC had an RUNX1 binding intensity of 938.
As for CCTTTGTTGTGGTTTTTGCAGAAAGAGAAGGGTTAG, the figure is 10600 ± 540.
In the case of GAGTCTTCCTTGCGCGGCCCGGGCGCGGTTCTGGCT it was 736; in that of ACCAGCCCAGCAAGCATCTGCGGTTCAAGTGGCCAC, 1130; in that of TGCCGCGGACACCCAGCCAGCGGCAGTGCGGTTAAC, 1030.
As for GAGAAGGCAACCGCGAAAAGGAGGCGGCAACGCCTC, the figure is 991; as for GAAGAGACTCCCGCAACCTTGGCCGTCTCCCCTGAT, 868.
In the case of GCTCGCCGCGCGGTCGACAACCCCATCATGCGCTCG, the RUNX1 binding intensity is 1000.
In the case of TCCACACCCTGCTCCTCGGGTTTGCGGCGAGGACTC it was 994; in that of CTCATGCACCGCCCGCACGTCCCAGGCTGCGCTGCA, 902; in that of GCCCTCGGCACCCACATTCTATCAGGCTAACCAGCT, 991.
In the case of AGCGTTGTCTTACGGCCTCAACCACTCAGCGACCGG it was 869; in that of AGCGTTTCGTGCCTGTCTGGGGCTGACAAACCACAA, 866.
GGCGGGGCATTCGGCAGCACCGCCTGCGGGCGCCCG came in with an RUNX1 binding intensity of 734.
In turn, GCTCCCGCGGTGGGGATGCTGTCTCCGTCCTGGATG registered an RUNX1 binding intensity of 765.
As for GGTGGAGCCCTGGGCCGCATAAGGAACGAACTAGTT, the figure is 687.
Sequence TAGTCCGTCAGGGAACAGCGCAAAAGGGACCGCATG showed an RUNX1 binding intensity of 645.
As for GCAAGACCCCGCATTAACATCTCGGGAACGGACAGC, the figure is 777; as for TCCGCCGCAACCCGACTGGGAGGTGGTGGAACGACT, 740.
GGATGGACGGGGGCTGTTTGCAGATAACCACAGCCT returned an RUNX1 binding intensity of 898.
GGCACAGCTTGTGGCCAGAGGGAGCAAGAGAGAGGA came in with an RUNX1 binding intensity of 765.
As for TGACTGCTCACTGCGGGCGAGGGGAACTGGAGTGCA, the figure is 687; as for AGGTGGGAGGACGTTCCTACCCCGGCGCGGTGTGCA, 739.
As for CATCTACTGAGCAAGTGTAAGCCACAATAAGAAGCC, the figure is 967.
As for AAGTCCCACAATGCACTCCTCCACAGCAAGTTCCCA, the figure is 1210; as for AGGGGAGGCCTGTGGTTCTCACTTGCTGGCAGAGCT, 713.
CGCCTGCGGGCTGGTCCCCATCCTTGCTCTTAGACC registered an RUNX1 binding intensity of 1050.
As for TGATGTGGTCATAACACCCTCCCCTCAGCTCCCTTA, the figure is 1120; as for GAGCAGTGTAGAGAGGTGGTTATCAGTGGTCTTGAT, 774; as for GTGTGGTGCTGTGGTGCAGCCCCAGGCAACACGTGC, 782.
GGGGCAGCTTACGGCAGGAGAGCCCGCATTCCCGGC yielded an RUNX1 binding intensity of 1010.
In the case of GAGAAGAACCACAATTCAAAGTGATGGGGGAACTGG it was 894; in that of CCCGAGCGCGCCGCAGACCGGAGGCGAGAACTGGGC, 837; in that of ACAGGTTCAGCAAGCGGCCGTGGTTGTTAGTGGTGT, 734.5 ± 5.6.
In the case of GGGGCACCACACAAACCATGCCCTTTGTCTTCATGC it was 843; in that of AGAAAGCAGCAAAGTGACGTCATTTTGTGGCTTCAG, 719; in that of GTGACAACCGCCTCCCCAGCCACACCCTGTTTGACT, 1050.
In the case of GAGGCCGCACCCGCACCGAGCTCCCGTCCTGCGCTC it was 909.
With GTCCCACCACAGGCCTCCAGCCACACCCTGGGCCTC, the RUNX1 binding intensity is 1120.
As for ATATCCCTGTGGGTGAAAAACATGCCGGGAGTGAAA, the figure is 781; as for CTCAGGAATGCGGCAGTGCTCTGTGGGCACCCACCA, 793.
In the case of AAATGTGGCCAGATGCTCTGTGGGCGGGCGGCAGCT it was 726.
In the case of TTGCTCGGCTCCCTGGAGCTGTGGTCCGTGTGGGCT it was 679; in that of CATCATGAGAACCACACTCACCGAATCCAGCACCCA, 946.
CAAGCTGGCAGGGAGCGCGGTGCAACCACAAGAGTC displayed an RUNX1 binding intensity of 781.
As for ATCCAGGACGGTGCACCGACCCGAGGCACACCGCAC, the figure is 773; as for CAGTGACAGCAAGTGGTTCAGCGGTTGTTTAGGGCT, 742; as for AGCAACCCACTACCCGGCGCCTGATTCACCTCCCTC, 1090.
In the case of CCCACCCTCGCCTGAAGCCGAGCGGTTTCTACATCA it was 1010; in that of GGCAAAACCAATCGGCGGCCACACGGCAGTGGGCGG, 1420.
Sequence GCCCAGGCAGCAAGCCAGGCGCCCACAGGTTGGCAG gave an RUNX1 binding intensity of 671.
As for CCCCATCCTTGACCACAGGACCAGGCAGTCAGGGCA, the figure is 1610; as for CGGGTCCTCGCGGACCGCACGGATCCAGCTGACGGC, 705.
In the case of CCAACCACAGCTCGGCAGGCGCCACATGAAGGGCCC it was 909; in that of GGTCCGGGTGTATAAAGCGCGGCCCCCTGCGGGGAG, 698.
As for GGAAAAAAACCACCCATGCTCCTGGACCTCCCCTTC, the figure is 945.
Take ATGAAAGGACCACAAAGCCTCAGACAGAAAGCTGCA: the RUNX1 binding intensity came to 869.
In the case of ATGCTGTGGGTCCACTCCCTGCCACCTGCTTGCTGC it was 740.
In the case of TTGCCATTCCAGGCAATGAGCTTACCACATTGACTG it was 855.
As for CCCCCTGCGGTACAAATGTCCCGTAAGCCGCGAACC, the figure is 1390.
As for CTCACCGCGGGCTAGGGAGCGTGGGATTCTGGACTG, the RUNX1 binding intensity stood at 752.
The sequence CACTGCATTGTGGGAACGCGGAGCGCAAGCGAAGGG had an RUNX1 binding intensity of 768.
As for GGTTACTAGACCACAGCTTTTGTCCAGGGTGTGGCT, the figure is 1120.
As to ACTTCCACCGCTTTCGGTGCCTGTTGCCGCCTCCAA, the RUNX1 binding intensity came to 980.
As for GTCACTGTGGTATTTACTTTAGCTTTCTGTTCATCC, the figure is 1460; as for GGAGGGGCTGGCTGGAAGTGAACCGCAGAGCACGCT, 1090; as for ACCTGGTCTTGTGGCCCCCACCCAGGCAATGACTCA, 807.
As for CCGATTTCCCCGGGCGTGGTGAGACCGCGCTTCGTC, the figure is 785.
In the case of TCCCCACACTCCCGGCCCCGCCCGCACAGCCGCACC it was 1200.
Sequence AAATGTGTGTGGTTTCAGAACGTCCTCCCCACCTCC returned an RUNX1 binding intensity of 1300.
In the case of TCTAAATCACTTGCTGTTACAGAAACCACAGGCCTG it was 1240.
As for CTACTTTTCGGTCAACGCGGCCTGCGGTACCACCTC, the figure is 994; as for ACAGAAAGAAGCCGCAGGCCAAGCGGCTGTCAGCGG, 846.
As for TTTCTTTCTGTTTGCATCACCCCAAACCCACTATCA, the figure is 1830; as for GGTCTAAGAGCAAGGATGGGGACCAGCCCGCAGGCG, 694; as for TCCAGCCTGATTCTCTCGGACTTTTCAACCGCCCGG, 935.
For TTGCAAGAAACCGCTGGCCATGGCACGTCCCAGTGT, the RUNX1 binding intensity amounted to 766.
In the case of GTTTCAGTATTTGCTGGTGCGGCGTACCACACCTAC it was 917; in that of CTCCCAGCCGGGCTGAACCGAGACCGCTTCGTCCCC, 1050.
In turn, CCATCGGCAGTTTTGGGTTTTGCGCCCACAGCCGCC showed an RUNX1 binding intensity of 810.
